Experimental data taken from publication PMC9911399, “Two distinct binding modes provide the RNA-binding protein RbFox with extraordinary sequence specificity”.
Numbering of substitutions follows the chain as printed; changes in the protein carry UniProt numbers. Some of the results follow.

B1: GCAAGCA (DNA:RNA)
RNA: GGGAGACCGGAAUUCAGAUUGUCCGCAAGCAUUAAAUCCCGUCGUAGCCACCA
DNA 1: CAATCTGAATTCCGGTCTCCC
DNA 2: TGGTGGCTACGACGGGATT
B2: AGCUAUC (DNA:RNA)
RNA: GGGAGACCGGAAUUCAGAUUGUCCAGCUAUCUUAAAUCCCGUCGUAGCCACCA
DNA 1: CAATCTGAATTCCGGTCTCCC
DNA 2: TGGTGGCTACGACGGGATT
B3: GUAAACA (DNA:RNA)
RNA: B1 RNA with C26U, G29A
DNA 1: CAATCTGAATTCCGGTCTCCC
DNA 2: TGGTGGCTACGACGGGATT
B4: UUAUAGC (DNA:RNA)
RNA: B2 RNA with A25U, G26U, C27A, U30G
DNA 1: CAATCTGAATTCCGGTCTCCC
DNA 2: TGGTGGCTACGACGGGATT
B5: UGGAGUC (DNA:RNA)
RNA: B2 RNA with A25U, C27G, U28A, A29G
DNA 1: CAATCTGAATTCCGGTCTCCC
DNA 2: TGGTGGCTACGACGGGATT
B6: CAUAAAU (DNA:RNA)
RNA: B2 RNA with A25C, G26A, C27U, U28A, U30A, C31U
DNA 1: CAATCTGAATTCCGGTCTCCC
DNA 2: TGGTGGCTACGACGGGATT
B7: CAGUUAG (DNA:RNA)
RNA: B2 RNA with A25C, G26A, C27G, A29U, U30A, C31G
DNA 1: CAATCTGAATTCCGGTCTCCC
DNA 2: TGGTGGCTACGACGGGATT
B8: UGAGGUU (DNA:RNA)
RNA: B2 RNA with A25U, C27A, U28G, A29G, C31U
DNA 1: CAATCTGAATTCCGGTCTCCC
DNA 2: TGGTGGCTACGACGGGATT
B9: GAAGCGA (DNA:RNA)
RNA: B1 RNA with C26A, A28G, G29C, C30G
DNA 1: CAATCTGAATTCCGGTCTCCC
DNA 2: TGGTGGCTACGACGGGATT
B10: CUGUUAA (DNA:RNA)
RNA: B2 RNA with A25C, G26U, C27G, A29U, U30A, C31A
DNA 1: CAATCTGAATTCCGGTCTCCC
DNA 2: TGGTGGCTACGACGGGATT
B11: CCAUCUC (DNA:RNA)
RNA: B2 RNA with A25C, G26C, C27A, A29C
DNA 1: CAATCTGAATTCCGGTCTCCC
DNA 2: TGGTGGCTACGACGGGATT
B12: AGUCAAU (DNA:RNA)
RNA: B2 RNA with C27U, U28C, U30A, C31U
DNA 1: CAATCTGAATTCCGGTCTCCC
DNA 2: TGGTGGCTACGACGGGATT
B13: CGGGCCU (DNA:RNA)
RNA: B2 RNA with A25C, C27G, U28G, A29C, U30C, C31U
DNA 1: CAATCTGAATTCCGGTCTCCC
DNA 2: TGGTGGCTACGACGGGATT
B14: UUUCUAU (DNA:RNA)
RNA: GGGAGACCGGAAUUCAGAUUGUCCUUUCUAUUUAAAUCCCGUCGUAGCCACCA
DNA 1: CAATCTGAATTCCGGTCTCCC
DNA 2: TGGTGGCTACGACGGGATT
B15: CAGCCGC (DNA:RNA)
RNA: B2 RNA with A25C, G26A, C27G, U28C, A29C, U30G
DNA 1: CAATCTGAATTCCGGTCTCCC
DNA 2: TGGTGGCTACGACGGGATT
B16: AGUUGCC (DNA:RNA)
RNA: B2 RNA with C27U, A29G, U30C
DNA 1: CAATCTGAATTCCGGTCTCCC
DNA 2: TGGTGGCTACGACGGGATT
B17: CUAUUCU (DNA:RNA)
RNA: B14 RNA with U25C, U27A, C28U, A30C
DNA 1: CAATCTGAATTCCGGTCTCCC
DNA 2: TGGTGGCTACGACGGGATT
B18: GUUCCUA (DNA:RNA)
RNA: B14 RNA with U25G, U29C, A30U, U31A
DNA 1: CAATCTGAATTCCGGTCTCCC
DNA 2: TGGTGGCTACGACGGGATT
B19: AACGCCA (DNA:RNA)
RNA: B2 RNA with G26A, U28G, A29C, U30C, C31A
DNA 1: CAATCTGAATTCCGGTCTCCC
DNA 2: TGGTGGCTACGACGGGATT
B20: AAUCGGU (DNA:RNA)
RNA: B14 RNA with U25A, U26A, U29G, A30G
DNA 1: CAATCTGAATTCCGGTCTCCC
DNA 2: TGGTGGCTACGACGGGATT
B21: AGGUGUU (DNA:RNA)
RNA: B2 RNA with C27G, A29G, C31U
DNA 1: CAATCTGAATTCCGGTCTCCC
DNA 2: TGGTGGCTACGACGGGATT
B22: GUAGGAC (DNA:RNA)
RNA: B1 RNA with C26U, A28G, C30A, A31C
DNA 1: CAATCTGAATTCCGGTCTCCC
DNA 2: TGGTGGCTACGACGGGATT
B23: AAUUGCG (DNA:RNA)
RNA: B2 RNA with G26A, C27U, A29G, U30C, C31G
DNA 1: CAATCTGAATTCCGGTCTCCC
DNA 2: TGGTGGCTACGACGGGATT
B24: GCUUAAU (DNA:RNA)
RNA: B14 RNA with U25G, U26C, C28U, U29A
DNA 1: CAATCTGAATTCCGGTCTCCC
DNA 2: TGGTGGCTACGACGGGATT
B25: ACGUUGG (DNA:RNA)
RNA: B2 RNA with G26C, C27G, A29U, U30G, C31G
DNA 1: CAATCTGAATTCCGGTCTCCC
DNA 2: TGGTGGCTACGACGGGATT
B26: AACAUAA (DNA:RNA)
RNA: B2 RNA with G26A, U28A, A29U, U30A, C31A
DNA 1: CAATCTGAATTCCGGTCTCCC
DNA 2: TGGTGGCTACGACGGGATT
B27: GAGGAUU (DNA:RNA)
RNA: B2 RNA with A25G, G26A, C27G, U28G, C31U
DNA 1: CAATCTGAATTCCGGTCTCCC
DNA 2: TGGTGGCTACGACGGGATT
B28: UAUCACG (DNA:RNA)
RNA: B14 RNA with U26A, U29A, A30C, U31G
DNA 1: CAATCTGAATTCCGGTCTCCC
DNA 2: TGGTGGCTACGACGGGATT
B29: GUAUUCG (DNA:RNA)
RNA: B1 RNA with C26U, A28U, G29U, A31G
DNA 1: CAATCTGAATTCCGGTCTCCC
DNA 2: TGGTGGCTACGACGGGATT
B30: CCAAUCC (DNA:RNA)
RNA: B1 RNA with G25C, G29U, A31C
DNA 1: CAATCTGAATTCCGGTCTCCC
DNA 2: TGGTGGCTACGACGGGATT
B31: CAAAACC (DNA:RNA)
RNA: B1 RNA with G25C, C26A, G29A, A31C
DNA 1: CAATCTGAATTCCGGTCTCCC
DNA 2: TGGTGGCTACGACGGGATT

Each binder was assayed against T1, RBFOX1 RRM (Homo sapiens, UniProt Q9NWB1 109-208) (assay: EMSA; HiTS-Eq, 1 nM pool, 10 min; buffer printed only for the single-RNA assays: 10 mM Tris pH 7.5, 150 mM NaCl, 3.4 mM EDTA, 0.001% NP-40, 30 C). Settings: tags: His6 N-terminal (pET28a); label: 5' 32P.
T1 sequence: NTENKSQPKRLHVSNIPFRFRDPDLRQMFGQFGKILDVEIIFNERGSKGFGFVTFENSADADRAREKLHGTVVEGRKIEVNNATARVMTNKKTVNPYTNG
Outline: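 Purified RbFox RRM (wild type or mutant) was equilibrated for 10 min in 50 µL with 1 nM of a 5′-radiolabelled pool of RNA with 7 randomized nucleotides, its flanks annealed to DNA oligonucleotides, across increasing protein concentrations. Free RNA was separated by 8% native PAGE, excised, reverse-transcribed, PCR-barcoded and sequenced on an Illumina HiSeq 2500. Relative association constants came from read-count changes of each variant against the control reaction, normalised to the cognate motif.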

Binder	binding signal
B1	0.0187 KA relative to UGCAUGU
B2	0.00768 KA relative to UGCAUGU
B3	0.00248 KA relative to UGCAUGU
B4	0.00825 KA relative to UGCAUGU
B5	0.0349 KA relative to UGCAUGU
B6	0.000845 KA relative to UGCAUGU
B7	0.0113 KA relative to UGCAUGU
B8	0.0165 KA relative to UGCAUGU
B9	0.0104 KA relative to UGCAUGU
B10	0.00893 KA relative to UGCAUGU
B11	0.00486 KA relative to UGCAUGU
B12	0.00434 KA relative to UGCAUGU
B13	0.0242 KA relative to UGCAUGU
B14	0.00863 KA relative to UGCAUGU
B15	0.00702 KA relative to UGCAUGU
B16	0.011 KA relative to UGCAUGU

Binder	binding signal
B17	0.00535 KA relative to UGCAUGU
B18	0.00878 KA relative to UGCAUGU
B19	0.00148 KA relative to UGCAUGU
B20	0.00643 KA relative to UGCAUGU
B21	0.0135 KA relative to UGCAUGU
B22	0.00321 KA relative to UGCAUGU
B23	0.011 KA relative to UGCAUGU
B24	0.00513 KA relative to UGCAUGU
B25	0.0187 KA relative to UGCAUGU
B26	0.000651 KA relative to UGCAUGU
B27	0.0146 KA relative to UGCAUGU
B28	0.00833 KA relative to UGCAUGU
B29	0.0103 KA relative to UGCAUGU
B30	0.00106 KA relative to UGCAUGU
B31	0.000474 KA relative to UGCAUGU
